# Data reported in PubChem BioAssay AID504845 (National Center for Advancing Translational Sciences (NCATS), 2011).
# Hit rate of the full screen: of about 390,000 compounds, about 150 (0.038%) were called active. Inconclusive results, whose numbers are uncertain, are shown with a selection of clear calls. Calls come from the whole dose curve; as a rule, active = well fitted inhibition curve with a large enough effect; inconclusive = small, poorly fitted or top-dose-only effect; inactive = no such curve, though single readings can be large or run the other way. Potencies of inconclusive entries are doubtful fits and often do not repeat.
# Molecular target: Regulator of G-protein signaling 4 (Homo sapiens) (UniProt P49798)
# UniProt P49798, sequence (P49798 whole entry, looked up): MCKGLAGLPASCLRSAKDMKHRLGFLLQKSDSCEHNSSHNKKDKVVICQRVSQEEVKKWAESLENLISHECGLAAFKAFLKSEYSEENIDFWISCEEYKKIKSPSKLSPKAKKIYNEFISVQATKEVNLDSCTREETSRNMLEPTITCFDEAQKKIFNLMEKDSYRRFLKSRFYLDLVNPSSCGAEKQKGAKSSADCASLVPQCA
# Test: Inhibitors of Regulator of G Protein Signaling (RGS) 4: qHTS; note: nearly all actives have a fitted effect of over 75% in size
# Conditions: Transcreener GDP fluorescence polarization, RGS4-accelerated GTP hydrolysis; series mostly up to 114 µM; activity change, negative = inhibition: at the top concentration
# Method in brief: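 MLSMR compounds (23 nl, pin-transferred) preincubated 10 min at room temperature with a 500nM (2x) first reagent, then RGS4 at 900nM (2x) plus Transcreener GDP mix added; fluorescence polarization (620/688 nm) read before and after 90 min at 30 °C.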
# % is set by controls: 0 for no effect and ±100 for the full control effect; potency is the fitted concentration of half-maximal effect; tags give direction and shape of the fitted curve.
Structure (SMILES),Potency,"activity change, negative = inhibition"
COc1ccc(CCNC(=O)/C=C/c2ccco2)cc1,"inconclusive: 56.2 µM [inhibitor, partial curve, poor fit]",
O=S(=O)(c1ccc(=S)[nH]c1)N1CCN(Cc2ccccc2)CC1,"inconclusive: 100 µM [inhibitor, partial curve, poor fit]",
Cc1ccc(C)c(C(=O)CSc2nc3cc(C(=O)NC4CCCC4)ccc3c(=O)n2CC2CCCO2)c1 (centres undefined),,inactive: -30.1%
CN(c1ccccc1)S(=O)(=O)c1ccc(NC(=O)C2CCCCC2C(=O)O)cc1 (centres undefined),"inconclusive: 89.1 µM [inhibitor, single point]",
COc1ccccc1N1CCN(CC2CN3C(=O)N(C)c4ccccc4C3=N2)CC1 (centres undefined),"inconclusive: 29.9 µM [inhibitor, partial curve, poor fit]",
CCOc1ccccc1NC(=O)c1nnn(CC(=O)Nc2ccccc2CC)c1N,,inactive: 9.54%
COc1ccc(S(=O)(=O)N2CCN(CC3CC=CCC3)CC2)cc1 (centres undefined),,inactive: -12.6%
Nc1ccccc1-c1n[nH]c(=S)s1,"inconclusive: 89.1 µM [inhibitor, partial curve, poor fit]",
Cc1cccc(NC2=C(NC(=O)c3ccccc3)C(=O)c3ccccc3C2=O)c1,"inconclusive: 79.4 µM [inhibitor, partial curve, poor fit]",
O=C(Cc1cccs1)Nc1nc(-c2cccnc2)cs1,"inconclusive: 89.1 µM [inhibitor, partial curve, poor fit]",
Cc1cc(C)n2nc(SCC(=O)NC(=O)NCc3ccco3)nc2n1,"inconclusive: 28.2 µM [inhibitor, full curve, poor fit]",
COc1ccccc1C(=O)NCCC(=O)NCC1CCCO1 (centres undefined),,inactive: -8.87%
CCOC(=O)COc1ccc(Br)cc1/C=C\c1[nH]c(=O)[nH]c(=O)c1[N+](=O)[O-],"inconclusive: 28.2 µM [inhibitor, full curve, poor fit]",
O=C(Nc1ccc2c(c1)OCO2)c1cccc(F)c1,,inactive: -3.39%
CCOc1ccc(C(=O)Nc2cc(-c3cn4cccnc4n3)ccc2C)cc1OCC,,inactive: 0.312%
COc1ccc(N2CCCC2)c(NC(=O)c2ccc([N+](=O)[O-])o2)c1,"inconclusive: 17.8 µM [inhibitor, full curve, poor fit]",
COc1ccc(C2(CNC(=O)c3ccc(OCC(C)C)cc3)CCOCC2)cc1,"inconclusive: 56.2 µM [inhibitor, partial curve, poor fit]",
Cc1snc(SCC(=O)c2ccc(Cl)cc2)c1C#N,"inconclusive: 70.8 µM [inhibitor, single point]",
COc1cc(CC(=O)O)ccc1O,"inconclusive: 26.7 µM [inhibitor, partial curve, poor fit]",
Nc1ccccc1C(=O)N1O[C@@H]2C=C[C@H]1C2,"inconclusive: 79.4 µM [inhibitor, partial curve, poor fit]",
Cc1cc(C)n(CCc2nc(-c3ccc(C)o3)cs2)n1,"inconclusive: 50.1 µM [inhibitor, partial curve, poor fit]",
CCOC(=O)c1c(C)oc2nc(C)nc(NCCc3ccc(SC)cc3)c12,,inactive: -16.7%
CCNc1ccccc1CP(=O)(c1ccccc1)c1ccccc1O (centres undefined),"inconclusive: 70.8 µM [inhibitor, partial curve, poor fit]",

Structure (SMILES),Potency,"activity change, negative = inhibition"
Cc1ccc2[nH]c(=O)c3cc(C(=O)N(C)Cc4ccco4)sc3c2c1,"inconclusive: 79.4 µM [inhibitor, partial curve, poor fit]",
CC(=O)c1c(C)[nH]c(C(=O)OCC(=O)Nc2ccc(C)cc2[N+](=O)[O-])c1C,,inactive: 27.5%
CCCCNc1c(-c2ccc(OC)c(SC3CCCCC3)c2)nc2ccc(C)cn12,,inactive: 27.3%
CC1(C)Oc2ccc(C(=O)N3CCOCC3)cc2N(CC(=O)Nc2ccccc2)C1=O,"inconclusive: 89.1 µM [inhibitor, single point]",
c1ccc(-c2cnnc(N3CCCCC3)n2)cc1,,inactive: -17%
CC1CCCCN1C(=O)CSc1nc(C2CC2)nc2ccccc12 (centres undefined),,inactive: 15.5%
COc1ccc(-c2oc(NC(=O)CCl)c(C#N)c2-c2ccc(OC)cc2)cc1,"inconclusive: 79.4 µM [inhibitor, partial curve, poor fit]",
CCOC(=O)c1c(NC(=O)CSc2nccc(=O)[nH]2)sc(C)c1C,"inconclusive: 17.8 µM [inhibitor, full curve, poor fit]",
CC(=O)C1=C(O)C(=O)N(c2ccc(O)cc2)C1c1ccccc1Cl (centres undefined),"inconclusive: 79.4 µM [inhibitor, partial curve, poor fit]",
CCCCC(NC(=O)c1cccc(Br)c1)C(=O)O (centres undefined),"inconclusive: 56.2 µM [inhibitor, partial curve, poor fit]",
Cc1ccc(NC(=O)Cn2c(=O)n(CCC(=O)NCc3ccc4c(c3)OCO4)c(=O)c3sccc32)c(C)c1,"inconclusive: 28.2 µM [inhibitor, full curve, poor fit]",
CCC(=O)NC(=S)NNC(=O)c1ccc(OC)cc1,"inconclusive: 20 µM [inhibitor, full curve, poor fit]",
CN(C)/C=C/C(=O)/C=C/c1ccc(Cl)cc1,"inconclusive: 44.7 µM [inhibitor, partial curve, poor fit]",
Clc1ccc(C2=Nn3c(Cn4nnc5ccccc54)nnc3SC2)cc1,"inconclusive: 50.1 µM [inhibitor, partial curve, poor fit]",
Cn1c(Sc2ccc(C(=O)O)cc2[N+](=O)[O-])nnc1-c1ccccc1,"inconclusive: 44.7 µM [inhibitor, partial curve, poor fit]",
COc1ccc(NC(=O)CC2C(=O)N(c3ccc(C)cc3)C(=O)N2Cc2cccnc2)cc1 (centres undefined),,inactive: -0.941%
COc1ccccc1NC(=O)CSc1ccc2nnc(-c3cccnc3)n2n1,,inactive: -12%
CCOC(=O)c1sc(N/N=C/c2ccccc2)nc1C,"inconclusive: 17.8 µM [inhibitor, full curve, poor fit]",
O=C(NCc1ccccn1)c1cc(-c2ccc(Cl)cc2)nc2ccccc12,,inactive: -4.5%
COc1ccc(C2NCCc3c2[nH]c2ccccc32)cc1CN1CCc2cc(OC)c(OC)cc2C1C (centres undefined),,inactive: -8.76% [at 11.4 µM]
COC(=O)C1=C(C)N(Cc2ccco2)C(=O)/C1=C\c1ccc([N+](=O)[O-])cc1,"inconclusive: 79.4 µM [inhibitor, partial curve, poor fit]",
COc1cccc(C(=O)NCCS(=O)(=O)N2CCCCC2)c1,,inactive: -24.8%
O=[N+]([O-])c1cc(C(F)(F)F)ccc1NCCNC(=S)Nc1ccc(Cl)cc1,,inactive: -3.61%

Structure (SMILES),Potency,"activity change, negative = inhibition"
O=C(N/N=C/c1ccc(-c2ccccc2[N+](=O)[O-])o1)c1cncc(Br)c1,"inconclusive: 31.6 µM [inhibitor, full curve, poor fit]",
O=C(CN1C(=O)C(=O)c2ccccc21)OCN1C(=O)c2ccccc2C1=O,"inconclusive: 79.4 µM [inhibitor, partial curve, poor fit]",
CSc1cccc(NC(=O)N2CCN(c3cc(-c4noc(C)n4)ccc3C)CC2)c1,,inactive: -8.43%
CN(C)c1ccc(CC2C(=O)Nc3ccccc32)cc1 (centres undefined),"inconclusive: 35.5 µM [inhibitor, full curve, poor fit]",
O=C(N[C@H]1/C=C\[C@@H](O)CCCC1)OCc1ccccc1,,inactive: -6.21%
O=C(CSc1nnnn1C1CCCC1)Nc1ccc(F)cc1,,inactive: -3.4%
O=S(=O)(c1cccc(Br)c1)N1CCN(c2nc(-c3cccs3)nc3ccccc23)CC1,,inactive: 27.5%
S=c1[nH]nc(-c2cc3c(s2)-c2ccccc2CC3)o1,,inactive: -15.7%
CCOc1ccc(CN2CCN(Cc3cccc4c3OCO4)CC2CCO)cc1 (centres undefined),,inactive: 8.47%
COc1ccc(C(c2c(O)ccc3ccccc23)N2CCOCC2)c(OC)c1 (centres undefined),"inconclusive: 56.2 µM [inhibitor, partial curve, poor fit]",
COc1ccccc1-n1c(/C=C/c2c(C)n(C)c3ccccc23)nc2ccccc2c1=O,"inconclusive: 50.1 µM [inhibitor, partial curve, poor fit]",
Cc1ccc(NC(=S)Nn2cnnc2)cc1,"inconclusive: 50.1 µM [inhibitor, partial curve, poor fit]",
CCC(=O)Nc1ccc(NC(=S)NC(=O)/C=C/c2ccccc2)cc1,"inconclusive: 89.1 µM [inhibitor, single point]",
S=c1[nH]nc(-c2cc(-c3ccccc3)n[nH]2)n1/N=C/C=C/c1ccco1,"inconclusive: 100 µM [inhibitor, partial curve, poor fit]",
COc1ccc(/C=N/OCC(=O)Nn2c(C)nc3ccccc3c2=O)cc1,,inactive: -0.819%
O=C(NC(=S)Nc1cccc2c(O)cccc12)c1cccc(Br)c1,"inconclusive: 79.4 µM [inhibitor, partial curve, poor fit]",
Clc1ccccc1C(c1ccccc1)(c1ccccc1)n1ccnc1,"inconclusive: 37.7 µM [inhibitor, single point]",
Cc1ccc(C)c(NC(=O)CN(C)C(=O)c2ccc(Cl)nc2)c1,,inactive: 15.7%
CCN(CC(=O)NCC1CCCO1)S(=O)(=O)c1ccc(Cl)cc1 (centres undefined),,inactive: 50.2%
CC(=O)c1sc(=S)n(-c2ccc(Cl)cc2)c1C,"inconclusive: 35.5 µM [inhibitor, full curve, poor fit]",
Cc1ccccc1C(=O)N1CCN(CCc2ccccn2)CC1,,inactive: -6.84%
N#Cc1c2c(c(Nc3ccccc3)n3c1nc1ccccc13)CCC2,"inconclusive: 10 µM [inhibitor, full curve, poor fit]",
COC(=O)CCC(=O)OC1(C)C(=O)C2=CN(CCCOC(C)C)C(c3ccc(OC)cc3)=CC2=C(Br)C1=O (centres undefined),"inconclusive: 28.2 µM [inhibitor, full curve, poor fit]",
